# Test results from the BET-seq Pho4 binding data (Le et al. 2018).
# The other results are listed elsewhere or left out. The energies were worked out here from pooled read counts, against the library average; single values are noisy.
# Biological target: T1, Pho4 (S. cerevisiae) (UniProt P07270)
# T1 sequence: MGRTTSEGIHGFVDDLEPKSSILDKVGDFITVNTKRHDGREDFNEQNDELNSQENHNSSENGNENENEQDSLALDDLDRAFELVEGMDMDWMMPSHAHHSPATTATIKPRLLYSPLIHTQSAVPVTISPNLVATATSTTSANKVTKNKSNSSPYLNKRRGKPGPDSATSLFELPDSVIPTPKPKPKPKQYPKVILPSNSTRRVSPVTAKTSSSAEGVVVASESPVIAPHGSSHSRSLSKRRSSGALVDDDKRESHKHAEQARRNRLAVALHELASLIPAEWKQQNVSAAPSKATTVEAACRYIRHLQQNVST
# Test: relative binding free energy (BET-seq); higher = weaker binding
# Settings: reference: library average
row,Sequence,relative binding free energy [kcal/mol]
1,GTGGTCACGTGAAAGG,0.34
2,AAGTTCACGTGGAATT,0.46
3,ATGGACACGTGGGAGT,-0.12
4,TCAGTCACGTGGTGGG,0.13
5,TGTGCCACGTGTTCAG,-0.12
6,CTAGTCACGTGGATTG,0.02
7,TGAATCACGTGAAGTG,0.32
8,GTTGTCACGTGTGCTT,0.17
9,GGATACACGTGCAGTG,0.12
10,GGCTTCACGTGGTTAG,0.17
11,TAGGTCACGTGTGATC,0.18
12,ATAATCACGTGCTGGT,0.11
13,GGGCACACGTGCGGTA,0.03
14,CGTGTCACGTGGAAGA,0.2
15,AGAGCCACGTGGGGCG,-0.25
16,TAAGTCACGTGGCTGT,0.04
17,CATGGCACGTGGGTAT,-0.18
18,TTAGGCACGTGGAATA,-0.06
19,CCGGGCACGTGGGTTA,-0.27
20,GGTGACACGTGCGGGT,-0.01
21,TTTTACACGTGTGCGC,0.1
22,GTAGACACGTGGCGGG,0
23,TGGGTCACGTGAACTG,0.38

row,Sequence,relative binding free energy [kcal/mol]
1,TCGGTCACGTGTTGAA,0.28
2,ATGGTCACGTGGTCCG,0.04
3,TTAGTCACGTGATTTC,0.12
4,TACTTCACGTGTGTTG,0.28
5,GGTTGCACGTGATACT,0.13
6,GGAGCCACGTGGGTAT,-0.21
7,TGAGACACGTGGGGTT,-0.06
8,GAGTTCACGTGAGCTG,0.37
9,TTGATCACGTGGAGAG,0.11
10,TCTATCACGTGGAGGT,0.22
11,TTATACACGTGATTTG,0.23
12,ATTGGCACGTGTAGTG,-0.09
13,AGAGGCACGTGGCGGT,-0.21
14,TGTGACACGTGCGAGG,0
15,GTGGGCACGTGGTTCC,0
16,ATAGACACGTGATTTG,-0.01
17,GTCGGCACGTGGATAG,-0.01
18,GTAGGCACGTGTCGGA,-0.08
19,TCTAGCACGTGTGAAG,0.1
20,TGTGTCACGTGAGATA,0.14
21,TACTTCACGTGGGTGA,0.13
22,CGTGGCACGTGGGAGC,-0.22
23,ATGTTCACGTGTAAAA,0.41

row,Sequence,relative binding free energy [kcal/mol]
1,CCTGTCACGTGGGAGG,-0.05
2,AAGTACACGTGTGTGT,-0.06
3,AGTAGCACGTGAGGAA,0.2
4,AATGGCACGTGTGGTA,-0.03
5,GTCTTCACGTGAGGGC,0.54
6,TATTTCACGTGGGATC,0.2
7,TGGCACACGTGGTAGG,0
8,AAATGCACGTGCTGTT,0.1
9,TTATGCACGTGAGGAC,0.19
10,ATTTACACGTGAGTAG,0.19
11,TTGGGCACGTGTTCAT,-0.1
12,ATGGTCACGTGCCTTA,0.22
13,TGCATCACGTGTTTTT,0.16
14,GTAGGCACGTGTGTGT,-0.04
15,GGATACACGTGAGGAT,0.29
16,GTTCACACGTGTAAGG,0.19
17,AATCGCACGTGGGATG,-0.17
18,GGGATCACGTGAGTGT,0.3
19,GTTTTCACGTGGTGAC,0.39
20,TATAGCACGTGTTATA,-0.04
21,GGAGTCACGTGCGTTA,0.1
22,TTGGTCACGTGACGCT,0.16
23,TTGTACACGTGAGGGC,0.33

row,Sequence,relative binding free energy [kcal/mol]
1,TGATTCACGTGTCGTA,0.12
2,AGGGACACGTGTTTAT,0.06
3,CAAGGCACGTGTTTGT,-0.13
4,CAGGGCACGTGACTGG,0.11
5,GGATGCACGTGCGGTA,-0.06
6,CGCGACACGTGGTGTG,-0.11
7,CAGTGCACGTGTGTGG,0.09
8,TGCGTCACGTGCTTTG,0
9,GTTATCACGTGGTGCC,0.18
10,GAGTGCACGTGTATGA,0.11
11,GTAATCACGTGGTATT,0.12
12,TGTTTCACGTGCGATG,0.28
13,TAAGGCACGTGCGTGG,-0.28
14,TGGTCCACGTGGGGCT,-0.12
15,TTCATCACGTGTTCGT,0.21
16,AACTACACGTGGTGTG,-0.05
17,GGCGTCACGTGGGCAT,-0.12
18,GCTCTCACGTGGGGTA,0.22
19,TATTGCACGTGTACGA,0.03
20,TTGGTCACGTGATTGA,0.27
21,AAGGTCACGTGGGTAC,-0.11
22,TGCTACACGTGGGGTA,-0.17
23,GGGGTCACGTGCTAGG,0.12

row,Sequence,relative binding free energy [kcal/mol]
1,GGGGGCACGTGTCGAG,-0.07
2,TGGGCCACGTGAAGGG,0.27
3,GTGGACACGTGATTCA,0.28
4,GAGTTCACGTGTCTTT,0.3
5,CAGAGCACGTGGGGTT,-0.35
6,GCCTTCACGTGGAGTT,0.44
7,AATTTCACGTGTGAAT,0.25
8,CTGATCACGTGGTGTT,-0.07
9,CTTATCACGTGTGTTT,0.1
10,TAAGGCACGTGTGATG,-0.05
11,GCCTTCACGTGTGGGT,0.24
12,TTGAGCACGTGGGCCT,-0.01
13,TACGGCACGTGAGGGT,0.1
14,GTGAGCACGTGGGGCC,-0.13
15,CGGTACACGTGTAAGT,0.18
16,GTATTCACGTGATATT,0.15
17,CGGGTCACGTGATTAG,0.17
18,GGGCTCACGTGGTGCA,0.21
19,GTTCGCACGTGTTCGG,0.13
20,TTTTGCACGTGGTGTG,-0.05
21,CGGCGCACGTGGTGGA,-0.11
22,GTAGGCACGTGGGCTT,-0.21
23,ATTTGCACGTGGAATT,-0.04
